# Laboratory results taken from the supplement of paper PMC3334620.
# Whole data set: some 33,000 sequences, median “E-score (-0.5 to 0.5)” near -0.017, cut for the highest 2% near 0.3. This is one part of the list.
# Molecular target: T1, Sut1 (UniProt P53032)
# T1 sequence: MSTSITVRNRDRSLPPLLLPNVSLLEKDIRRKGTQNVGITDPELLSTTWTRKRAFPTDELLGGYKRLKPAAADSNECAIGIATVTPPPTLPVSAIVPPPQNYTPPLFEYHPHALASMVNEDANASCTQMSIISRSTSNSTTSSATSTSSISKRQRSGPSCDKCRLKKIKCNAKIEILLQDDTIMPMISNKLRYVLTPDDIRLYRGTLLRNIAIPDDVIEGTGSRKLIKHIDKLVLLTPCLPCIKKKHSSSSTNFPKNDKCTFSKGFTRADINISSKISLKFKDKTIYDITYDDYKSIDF
# Test: PBM E-score (8-mer binding enrichment) (E-score (-0.5 to 0.5)); higher = stronger / more preferred TF binding; most listed sequences are background and not binding sites
# Conditions: protein concentration: 200 nM; construct: GST-full length
# Experimental: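 Universal 'all 10-mer' protein binding microarrays (Agilent AMADID 015681) probed with GST-tagged S. cerevisiae TFs (full-length or DBD) made by in vitro transcription/translation (PURExpress), about 100-200 nM. Bound TF was detected with fluorescent anti-GST. Each ungapped 8-mer (which stands for itself and its reverse complement) is scored by the PBM enrichment score (E-score), a modified Wilcoxon-Mann-Whitney statistic from -0.5 to +0.5, computed with the Universal PBM Analysis Suite. Scale: above 0.35 generally sequence-specific binding.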
row,Sequence,PBM E-score
1,ACCGCACC,-0.173
2,AACCATAA,0.187
3,AGCACCGC,-0.21
4,AGCTGAAG,-0.0924
5,CGAACCTC,-0.00524
6,AACGGTGC,-0.00434
7,ACTGGGCC,-0.0163
8,CAATAATA,0.277
9,CCCAAACC,-0.0698
10,CAGCCTTA,-0.0963
11,AAGTGGAA,-0.0445
12,ATATTCTC,0.151
13,CATATGAC,-0.11
14,GAGTTACA,0.148
15,AGTGAAAC,0.106
16,CCCATATA,-0.111
17,GGGACACA,-0.076
18,CATTATGC,0.113
19,CCCATCCG,-0.0816
20,CGGATCTC,0.0328
21,CATCACCG,-0.0295
22,GAGCCACC,-0.264
23,ATGCAAAA,0.197
24,TCTGAAAA,0.151
25,CATATAAA,0.15

row,Sequence,PBM E-score
1,CTCTCGGA,0.32
2,CCTCGAAC,-0.154
3,GCACTTCA,0.0427
4,AAGCGGAA,0.0759
5,CATCATGC,-0.046
6,GTAAGCCA,-0.205
7,AAGTCCAT,0.0246
8,GACGCAAC,-0.109
9,ATCCATCC,0.148
10,ACAAGGTC,-0.168
11,ATTTCTTG,0.271
12,CCCTGTAC,-0.276
13,CAACCCAC,-0.069
14,AACCCAAT,0.0381
15,CCTCGTGA,-0.123
16,GTTAAGAA,0.0156
17,AGCTAGTG,-0.208
18,ATTCACGG,0.219
19,AATGGACA,0.0358
20,GCGGAGAA,0.279
21,TGTTATAA,0.299
22,CCGCTCGA,-0.104
23,AACCGAAC,0.134
24,CGCAAGTA,0.00362
25,CCTGTCTA,-0.00562

row,Sequence,PBM E-score
1,CGGTGAGC,-0.124
2,ATAGTGTC,-0.0389
3,AAGTTCAC,-0.0197
4,CGCTTCGC,-0.0709
5,CAACTCCC,0.12
6,CCTGGCGC,-0.0758
7,AGTTCACG,-0.089
8,CCGAGAAG,0.0844
9,CCGACAAA,0.313
10,ACGTGGAC,-0.0921
11,AGGAGTTG,0.114
12,CAAAGCCC,-0.0153
13,ACCGGACA,0.234
14,CGGCTAGA,-0.0327
15,AACCTTCA,0.0886
16,AAGCATAT,0.0695
17,CCGCACTC,0.13
18,AAGTCTAC,0.004
19,AACAAGGT,0.0565
20,ATAAATTC,0.219
21,TACTCCCA,0.0185
22,CCACACCC,-0.148
23,CATGATCG,-0.0597
24,GCCCCAGA,-0.251
25,CGCATATC,0.215

row,Sequence,PBM E-score
1,CAGGCTAC,-0.217
2,CTGGTCAC,-0.013
3,CATAACTC,0.0776
4,CAGGCAAC,-0.0541
5,AGCCTACC,-0.187
6,AATATACG,0.0669
7,GCAATAAA,0.237
8,CGTGTCGA,-0.282
9,AACCGACA,0.0408
10,CAATTTGG,-0.0638
11,ACACGGGA,-0.0537
12,CGTACCGC,-0.147
13,CTCCCACA,-0.112
14,GCTTGTCA,0.0707
15,CGGAATCA,0.248
16,CACGTATG,0.0435
17,AAATGGAG,0.0191
18,GGCCTTCA,-0.037
19,ATCGGCAC,-0.108
20,CTATGGGC,-0.194
21,ACCACCCT,-0.17
22,GCCCGGGA,-0.116
23,CCCCGCGC,-0.0648
24,AACACTTC,0.0137
25,GCACCAGC,-0.163

row,Sequence,PBM E-score
1,GTAAACTA,0.227
2,GCCGCTCA,-0.177
3,CGGCCCTA,-0.0121
4,GTGTTCCA,-0.128
5,CCAAGTTC,-0.107
6,GTTAATCA,0.23
7,ACGGGAGG,-0.0871
8,CAACGAAA,0.141
9,TCTTACAA,0.0742
10,ATTAGGAC,0.0351
11,AGTTGCGG,0.153
12,ACAGTTAA,0.189
13,AGCCGTGA,-0.0248
14,ACGCCCTA,-0.154
15,AGAGGTGA,-0.0257
16,CTTAGTAC,0.00438
17,GCACCAAA,-0.0995
18,ATCCAGAC,-0.0133
19,GAAAACAC,0.109
20,ATGGAACG,-0.244
21,AGTCAACG,-0.187
22,AGTTAATC,0.16
23,ATCTGACG,-0.291
24,CGTATAAG,0.0744
25,CGATTAAG,0.169

row,Sequence,PBM E-score
1,CACCCTAG,-0.13
2,AATAGATT,0.234
3,ACGACAGC,-0.123
4,ATAATGTG,0.0616
5,ATCGCATG,0.0378
6,AAGATACT,0.0112
7,AATGTGGC,-0.172
8,GCGAGCGA,0.134
9,ACCCTCAG,-0.0355
10,AATCCATC,-0.159
11,CTGTAGCA,-0.0036
12,GCTTAGAA,-0.00507
13,AAGGCCGG,0.141
14,GGTAGGGA,-0.0326
15,TCGTTACA,-0.0871
16,GGCTCGGA,0.227
17,CAAGCGAA,-0.0186
18,ATTTGGGG,-0.112
19,TCGGCCCA,-0.137
20,CTGGTTAC,-0.257
21,ATCTTAAT,0.0933
22,CAAAGTTA,0.232
23,CCTTAGTC,-0.196
24,AGCAACTA,0.0763
25,GAGGCGAC,-0.0877

row,Sequence,PBM E-score
1,GCTTCTAA,-0.096
2,CGCAACAA,0.0103
3,CCCTTAAA,0.0399
4,CCCATATC,-0.043
5,ATTTCCAG,-0.0254
6,GCGCCTCA,-0.0448
7,CGAACGCA,0.163
8,AACCGGCA,-0.0988
9,CACTCAAG,-0.104
10,ACATTTCT,0.211
11,AGGGCAAC,-0.119
12,CCATGCAG,-0.203
13,ATCGCGGC,0.122
14,AAAACAAC,0.0331
15,ATTGCTTC,0.0496
16,AAAATAAG,0.208
17,CACATAGG,0.0745
18,CCTCCATC,-0.301
19,CAGGTTGA,-0.0962
20,AGGATCGC,-0.214
21,CGAGTACA,-0.106
22,ACGACCGT,-0.327
23,GCAGGCAC,-0.246
24,ACCAACAC,0.171
25,CCGTCCAA,0.121

row,Sequence,PBM E-score
1,CGGAGTGC,0.468
2,AGCGTTTG,-0.0797
3,GGGCGGGA,-0.178
4,AGCAGCAA,0.0164
5,ACAGGGGT,-0.261
6,TCGGGCCA,-0.0705
7,AACTCACA,0.11
8,CCAACCAC,0.0175
9,ACTCTTTG,0.0382
10,GACTCCAC,0.0104
11,AGCTGCAC,-0.0851
12,ACCCTTAA,0.0384
13,ACTACCCT,-0.205
14,CTAAGAAA,0.19
15,ACCATAAC,0.0292
16,GACGTCAC,-0.116
17,AAAAGGAT,0.0447
18,CACGTAAA,-0.0406
19,CCTCTGTC,-0.25
20,CCCGCTAC,-0.158
21,AGAAACAC,0.196
22,ACTTACAT,0.116
23,AGGAGTAG,-0.0194
24,AGATAGGA,-0.153
25,ACATCGAA,-0.0163

row,Sequence,PBM E-score
1,CATAAAAG,0.145
2,CCACCTAC,-0.0449
3,AACTCCAA,0.144
4,AGGACCAA,-0.0934
5,CAACAAGA,-0.0355
6,GAGTTCCA,0.127
7,CTCAGTAC,-0.029
8,ACTGGCTA,-0.0756
9,AGCGTGCC,-0.236
10,CGTTTCTC,0.0691
11,CGCCCCAA,-0.0217
12,GCTGTCCC,-0.24
13,ACCACTTC,-0.0194
14,AAGCATCA,-0.0245
15,AACGCAAT,0.0856
16,ATAGTACA,0.2
17,CGGTGTAG,-0.0571
18,ACTTGCGC,-0.121
19,CCATTCTC,0.0682
